Target: T1, recombinant monomeric CD123 ectodomain (ECD) with an affinity tag on the C-terminus (UniProt P26951 19-305)
T1 construct: extracellular domain; also called CD123 ECD; extracellular domain of CD123
T1 sequence (looked up): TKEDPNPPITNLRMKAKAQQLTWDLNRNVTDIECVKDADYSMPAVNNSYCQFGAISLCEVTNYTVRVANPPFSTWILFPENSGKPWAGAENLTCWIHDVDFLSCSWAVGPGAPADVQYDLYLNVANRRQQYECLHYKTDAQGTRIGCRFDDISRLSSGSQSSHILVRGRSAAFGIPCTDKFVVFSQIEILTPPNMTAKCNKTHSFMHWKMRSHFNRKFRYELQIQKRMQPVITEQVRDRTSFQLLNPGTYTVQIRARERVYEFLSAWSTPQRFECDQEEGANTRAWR
Assay: SPR (Biacore T200), bispecific captured by anti-human Fc F(ab')2, CD123 ECD 3-48 nM as analyte, 25 °C, 1:1 model

B1: OMT1 VLVH x TSC456 scFv-Fc-scFv TRI130 (bispecific antibody)
chain: [about 100 residues skipped]TFGGGTKVEIKGGGGSGGGGSGGGGSGGGGSEVQLLESGGGLVQPGGSLRLSCAASGFTFSSYGMSWVRQAPGKGLEGVSAISGSGGSTYYADSVKGRFTISRDNSKNTLYLQMNSLRAEDTAVYYCAKEKLRYFDWLSDAFDIWGQGTMVTVSSSEPKSSDKTHTCPPCPAPEAAGAPSVFLFPPKPKDTLMISRTPEVTCVVVDVSHEDPEVKFNWYVDGVEVHNAKTKPREEQYNSTYRVVSVLTVLHQDWLNGKEYKCAVSNKALPAPIEKTISKAKGQPREPQVYTLPPSRDELTKNQVSLTCLVKGFYPSDIAVEWESNGQPENNYKTTPPVLDSDGSFFLYSKLTVDKSRWQQGNVFSCSVMHEALHNHYTQKSLSLSPGSGGGGSGGGGSGGGGSPSQVQLVQSGPEVKKPGSSVKVSCKASGYTFSRSTMHWVRQAPGQGLEWIGYINPSSAYTNYNQKFKDRVTITADKSTSTAYMELSSLRSEDTAVYYCARPQVHYDYNGFPYWGQGTLVTVSSGGGGSGGGGSGGGGSGGGGSDIQMTQSPSTLSASVGDRVTMTCSASSSVSYMNWYQQKPGKAPKRWIYDSSKLASGVPSRFSGSGSGTDYTLTISSLQPDDFATYYCQQWSRNPPTFGGGTKVEIKRS
notes: Single-chain scFv-Fc-scFv, anti-CD123 (OMT1, VL-VH) x anti-CD3ε (TSC456)
**Q.** What does the source list for B1?
**A.** Kd: 2.7 nM; koff: 0.000472 s⁻¹; kon: 172000 M⁻¹ s⁻¹

— US20260234254A1 (APTEVO RESEARCH AND DEVELOPMENT, published 2026)
